# From the supplement of paper PMC8728848
# Some of the results follow.
# B1: AFL (Aspergillus fumigatus), Q4WW81 (protein)
# chain: STPGAQQVLFRTGIAAVNLTNHLRVYFQDVYGSIRESLYEGSWANGTEKNVIGNAKLGSPVAATSKELKHIRVYTLTEGNTLQEFAYDSGTGWYNGGLGGAKFQVAPYSRIAAVFLAGTDALQLRIYAQKPDNTIQEYMWNGDGWKEGTNLGGALPGTGIGATSFRYTDYNGPSIRIWFQTDDLKLVQRAYDPHKGWYPDLVTIFDRAPPRTAIAATSFGAGNSSIYMRIYFVNSDNTIWQVCWDHGKGYHDKGTITPVIQGSEVAIISWGSFANNGPDLRLYFQNGTYISAVSEWVWNRAHGSQLGRSALPPA
# What was measured:
# Assay in all cases: glycan array binding signal (z-score within array); higher = stronger binding
# Conditions in all cases: glycan notation: IUPAC condensed, linker removed
# [1] = molecular target: Fuc(a1-2)[GalNAc(a1-3)]Gal(b1-4)[Fuc(a1-3)]GlcNAc
# Outline: (§1)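 Arrays were curated from the Consortium for Functional Glycomics database, 3228 in total, and kept only where the protein sequence was available. Binding is expressed as a within-array Z-score. This score was averaged across arrays of the same protein sequence at different concentrations or buffers and across linkers, and negative values can be read as non-binding.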
# [2] = molecular target: Fuc(a1-2)[GalNAc(a1-3)]Gal(b1-4)[Fuc(a1-3)]GlcNAc(b1-3)GalNAc
# Outline: as §1
# [3] = molecular target: Fuc(a1-2)[GalNAc(a1-4)]Gal(b1-4)GlcNAc
# Outline: as §1
# [4] = molecular target: Fuc(a1-2)[GalNAc(b1-3)]Gal
# Outline: as §1
# Fuc(a1-3)GlcNAc = molecular target: Fuc(a1-3)GlcNAc
# Outline: as §1
# [5] = molecular target: Fuc(a1-3)[Gal(b1-4)]Glc6S
# Outline: as §1
# [6] = molecular target: Fuc(a1-3)[Gal(b1-4)]GlcNAc
# Outline: as §1
# [7] = molecular target: Fuc(a1-3)[Gal(b1-4)]GlcNAc(b1-2)Man(a1-3)[Fuc(a1-3)[Gal(b1-4)]GlcNAc(b1-2)Man(a1-6)]Man(b1-4)GlcNAc(b1-4)GlcNAc
# Outline: as §1
# [8] = molecular target: Fuc(a1-3)[Gal(b1-4)]GlcNAc(b1-2)Man(a1-3)[Fuc(a1-3)[Gal(b1-4)]GlcNAc(b1-2)Man(a1-6)]Man(b1-4)GlcNAc(b1-4)[Fuc(a1-6)]GlcNAc
# Outline: as §1
# [9] = molecular target: Fuc(a1-3)[Gal(b1-4)]GlcNAc(b1-3)Gal(b1-3)[Fuc(a1-4)]GlcNAc
# Outline: as §1
# [10] = molecular target: Fuc(a1-3)[Gal(b1-4)]GlcNAc(b1-3)GalNAc
# Outline: as §1
# [11] = molecular target: Fuc(a1-3)[Gal(b1-4)]GlcNAc(b1-4)Gal(b1-4)[Fuc(a1-3)]GlcNAc
# Outline: as §1
# [12] = molecular target: Fuc(a1-3)[Gal(b1-4)]GlcNAc(b1-4)Gal(b1-4)[Fuc(a1-3)]GlcNAc(b1-4)Gal(b1-4)[Fuc(a1-3)]GlcNAc
# Outline: as §1
# [13] = molecular target: Fuc(a1-3)[Gal(b1-4)]GlcNAc(b1-6)GalNAc
# Outline: as §1
# [14] = molecular target: Fuc(a1-3)[Gal(b1-4)]GlcNAc(b1-6)[Gal(b1-3)GlcNAc(b1-3)]Gal(b1-4)Glc
# Outline: as §1
# [15] = molecular target: Fuc(a1-3)[Gal(b1-4)]GlcNAc(b1-6)[Neu5Ac(a2-3)Gal(b1-3)]GalNAc
# Outline: as §1
# [16] = molecular target: Fuc(a1-3)[Gal(b1-4)]GlcNAc6S
# Outline: as §1
# [17] = molecular target: Fuc(a1-3)[Gal3S(b1-4)]GlcNAc
# Outline: as §1
# [18] = molecular target: Fuc(a1-3)[Gal3S(b1-4)]GlcNAc6S
# Outline: as §1
# [19] = molecular target: Fuc(a1-3)[GalNAc(b1-4)]GlcNAc
# Outline: as §1
# Fuc(a1-4)GlcNAc = molecular target: Fuc(a1-4)GlcNAc
# Outline: as §1
# Fuc(b1-3)GlcNAc = molecular target: Fuc(b1-3)GlcNAc
# Outline: as §1
# Gal(a1-2)Gal = molecular target: Gal(a1-2)Gal
# Outline: as §1
# Gal(a1-3)Gal = molecular target: Gal(a1-3)Gal
# Outline: as §1
# Gal(a1-3)Gal(b1-3)GlcNAc = molecular target: Gal(a1-3)Gal(b1-3)GlcNAc
# Outline: as §1
# [20] = molecular target: Gal(a1-3)Gal(b1-3)GlcNAc(b1-2)Man(a1-3)[Gal(a1-3)Gal(b1-3)GlcNAc(b1-2)Man(a1-6)]Man(b1-4)GlcNAc(b1-4)GlcNAc
# Outline: as §1
# [21] = molecular target: Gal(a1-3)Gal(b1-3)GlcNAc(b1-3)GalNAc
# Outline: as §1
# [22] = molecular target: Gal(a1-3)Gal(b1-3)[Fuc(a1-4)]GlcNAc(b1-2)Man(a1-3)[Gal(a1-3)Gal(b1-3)[Fuc(a1-4)]GlcNAc(b1-2)Man(a1-6)]Man(b1-4)GlcNAc(b1-4)GlcNAc
# Outline: as §1
# Gal(a1-3)Gal(b1-4)Glc = molecular target: Gal(a1-3)Gal(b1-4)Glc
# Outline: as §1
# Gal(a1-3)Gal(b1-4)GlcNAc = molecular target: Gal(a1-3)Gal(b1-4)GlcNAc
# Outline: as §1
# [23] = molecular target: Gal(a1-3)Gal(b1-4)GlcNAc(b1-3)GalNAc
# Outline: as §1
# [24] = molecular target: Gal(a1-3)Gal(b1-4)[Fuc(a1-3)]GlcNAc
# Outline: as §1
# [25] = molecular target: Gal(a1-3)Gal(b1-4)[Fuc(a1-3)]GlcNAc(b1-2)Man(a1-3)[Gal(a1-3)Gal(b1-4)[Fuc(a1-3)]GlcNAc(b1-2)Man(a1-6)]Man(b1-4)GlcNAc(b1-4)GlcNAc
# Outline: as §1
# Gal(a1-3)GalNAc = molecular target: Gal(a1-3)GalNAc
# Outline: as §1
# [26] = molecular target: Gal(a1-3)[Gal(a1-4)]Gal(b1-4)GlcNAc
# Outline: as §1
# [27] = molecular target: Gal(a1-4)Gal(b1-3)GlcNAc(b1-2)Man(a1-3)[Gal(a1-4)Gal(b1-3)GlcNAc(b1-2)Man(a1-6)]Man(b1-4)GlcNAc(b1-4)GlcNAc
# Outline: as §1
# Gal(a1-4)Gal(b1-4)Glc = molecular target: Gal(a1-4)Gal(b1-4)Glc
# Outline: as §1
# Gal(a1-4)Gal(b1-4)GlcNAc = molecular target: Gal(a1-4)Gal(b1-4)GlcNAc
# Outline: as §1
binder,measurement,setting,value
B1,glycan array binding signal (z-score),[1],-0.336
same,glycan array binding signal (z-score),[2],-0.375
same,glycan array binding signal (z-score),[3],2.88
same,glycan array binding signal (z-score),[4],-0.165
same,glycan array binding signal (z-score),Fuc(a1-3)GlcNAc,3.8
same,glycan array binding signal (z-score),[5],-0.189
same,glycan array binding signal (z-score),[6],1.04
same,glycan array binding signal (z-score),[7],1.14
same,glycan array binding signal (z-score),[8],-0.278
same,glycan array binding signal (z-score),[9],1.55
same,glycan array binding signal (z-score),[10],-0.002
same,glycan array binding signal (z-score),[11],1.54
same,glycan array binding signal (z-score),[12],2.98
same,glycan array binding signal (z-score),[13],-0.368
same,glycan array binding signal (z-score),[14],0.549
same,glycan array binding signal (z-score),[15],-0.345
same,glycan array binding signal (z-score),[16],1.12
same,glycan array binding signal (z-score),[17],0.994
same,glycan array binding signal (z-score),[18],1.17
same,glycan array binding signal (z-score),[19],1.14
same,glycan array binding signal (z-score),Fuc(a1-4)GlcNAc,3.56
same,glycan array binding signal (z-score),Fuc(b1-3)GlcNAc,2.98
same,glycan array binding signal (z-score),Gal(a1-2)Gal,-0.372
same,glycan array binding signal (z-score),Gal(a1-3)Gal,-0.385
same,glycan array binding signal (z-score),Gal(a1-3)Gal(b1-3)GlcNAc,-0.384
same,glycan array binding signal (z-score),[20],-0.373
same,glycan array binding signal (z-score),[21],-0.373
same,glycan array binding signal (z-score),[22],-0.371
same,glycan array binding signal (z-score),Gal(a1-3)Gal(b1-4)Glc,-0.38
same,glycan array binding signal (z-score),Gal(a1-3)Gal(b1-4)GlcNAc,-0.38
same,glycan array binding signal (z-score),[23],-0.39
same,glycan array binding signal (z-score),[24],0.057
same,glycan array binding signal (z-score),[25],-0.087
same,glycan array binding signal (z-score),Gal(a1-3)GalNAc,-0.382
same,glycan array binding signal (z-score),[26],-0.382
same,glycan array binding signal (z-score),[27],-0.379
same,glycan array binding signal (z-score),Gal(a1-4)Gal(b1-4)Glc,-0.381
same,glycan array binding signal (z-score),Gal(a1-4)Gal(b1-4)GlcNAc,-0.383
